Hit rate of the full screen: of about 50,000 compounds, about 800 (1.6%) showed an effect of 50% or more. The list shows a part of the results.
Biological target: Bcl-2-like protein 10 (Homo sapiens) (UniProt Q9HD36)
Test: TR3 peptide-Bcl-B binding displacers, biochemical primary FP assay, phenotype converters (AID 1240);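 note: 0% = Bcl-B with tracer peptide and DMSO and 100% = tracer peptide lacking Bcl-B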
Settings: GST-Bcl-B / FITC-TR3 peptide fluorescence polarization; stronger effect = higher value; compound at 3.75 mg/L

UniProt Q9HD36, sequence (Q9HD36 whole entry, looked up): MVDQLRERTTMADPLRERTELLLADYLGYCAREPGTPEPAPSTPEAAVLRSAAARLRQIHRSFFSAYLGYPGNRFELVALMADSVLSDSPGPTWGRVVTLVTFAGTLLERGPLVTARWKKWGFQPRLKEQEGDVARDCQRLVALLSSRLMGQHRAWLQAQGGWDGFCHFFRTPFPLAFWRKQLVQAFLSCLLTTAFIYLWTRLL

Row | SMILES | displacement
1 | CCOC(=O)c1ccc(NC(=S)NC(NC(=O)c2ccccc2Br)C(Cl)(Cl)Cl)cc1 (centres undefined) | 11.2%
2 | Cc1ccc(S(=O)(=O)/N=C(/Nc2ccc(C)c(Cl)c2)Nc2nc(C)cc(C)n2)cc1 | 7.3%
3 | O=C(/C=C/c1ccc(OCc2ccccc2)cc1)c1ccc(Br)cc1 | 12.1%
4 | CCc1ccc(NC(=O)C2CC(=O)N=C(N)S2)cc1 (centres undefined) | -2.4%
5 | O=C1C2C3C=CC(C3)C2C(=O)N1c1cc([N+](=O)[O-])ccc1O (centres undefined) | -6.2%
6 | COc1ccc([N+](=O)[O-])cc1N1C(=O)C2C3c4ccccc4C(C(C)=O)(c4ccccc43)C2C1=O (centres undefined) | -9.5%
7 | COc1ccc(C(=O)Nc2ccc(N3CCN(C(C)=O)CC3)cc2)cc1 | 3.9%
8 | C=CCNC(=S)Nc1nc(C)c(C)s1 | -2.5%
9 | Cn1cc(C(=O)N/N=C/C=C(\Br)c2ccccc2)ccc1=O | 3%
10 | Cc1cccc(-n2c(CCN3C(=O)c4ccccc4C3=O)nc3ccccc3c2=O)n1 | -0.9%
11 | CC(C)(C)NC(=O)CSc1ncccn1 | 12.1%
12 | COc1ccc(OC)c(/C=C2/SC(=O)N(CNc3ccc(Br)cc3C)C2=O)c1 | 90.9%
13 | C#Cc1c(C)n(-c2ccccc2)c2c(=O)n(Cc3ccccc3)cnc12 | 9%
14 | N/C(=N\OC(=O)c1ccc(Br)cc1)c1ccccn1 | 2.2%
15 | CCOc1cc(/C=N/NC(=O)COc2ccc(Cl)cc2Br)cc([N+](=O)[O-])c1O | 5.9%
16 | O=S(=O)(Cc1ccccc1)Nc1ccc(Br)cn1 | 10.3%
17 | COC(=O)CCC(=O)NCCc1c[nH]c2ccc(OC)cc12 | 11.1%
18 | Cc1no[n+]([O-])c1COc1ccc(/C=C2\NC(=S)NC2=O)cc1 | -73.2%
19 | COc1cc(OC)c(OC)cc1CN1CCN(Cc2cc(Br)ccc2O)CC1 | 11.3%
20 | O=C(N1CCN(c2c(F)c(F)c(C(F)(F)F)c(F)c2F)CC1)C12CC3CC(CC(C3)C1)C2 | 16.6%
21 | CC(/C=C/c1ccc(N(C)C)cc1)=N\N=C(/N)SC1CC(=O)N(c2ccc(F)cc2)C1=O (centres undefined) | -8.3%
22 | O=C(Nc1ccc(Br)cc1)c1cccc(S(=O)(=O)NC2CCCCC2)c1 | -8.9%

Row | SMILES | displacement
23 | COc1ccc(N(CC(=O)NCC(C)C)S(C)(=O)=O)c(OC)c1 | -2.8%
24 | C=C(C)Cn1c(SCC(=O)OC)nc2sc3c(c2c1=O)CCC(C(C)(C)C)C3 (centres undefined) | -6.4%
25 | COC(=O)c1ccccc1NC(=O)c1ccncc1 | -0.4%
26 | O=[N+]([O-])c1ccc(NCCCNS(=O)(=O)c2ccc3ccccc3c2)cc1 | 4.1%
27 | C=CCN1C(=O)c2ccccc2C1(O)c1ccc(F)cc1 (centres undefined) | -8.4%
28 | C#CCOc1ccc(Br)c(/C=N/NS(=O)(=O)c2ccc(C)cc2)c1 | -5.8%
29 | O=C(c1ccc(Cl)cc1[N+](=O)[O-])N1CCN(C(c2ccccc2)c2ccccc2)CC1 | 4.7%
30 | O=C(/C=C/c1cccc(NC(=O)c2ccc([N+](=O)[O-])cc2)c1)c1ccccc1 | 1%
31 | CCOC(=O)c1ccc(NC(=S)NC(NC(=O)c2ccccc2Cl)C(Cl)(Cl)Cl)cc1 (centres undefined) | -1.3%
32 | CC(C)(C)c1nnc(NC(=O)CSc2nnnn2-c2ccccc2)s1 | 2.2%
33 | O=C(O)CCC(=O)Nc1ccccc1C(=O)Nc1ccccc1 | -5.3%
34 | COc1ccc(NC(=O)C(NC(=O)c2ccccc2)C23CC4CC(CC(C4)C2)C3)cc1 (centres undefined) | -6%
35 | C(=N\n1cnnc1)/c1cccc(OCCOc2ccc(C3CCCCC3)cc2)c1 | -7.4%
36 | CCn1c(C(O)c2cc(OC)c(OC)c(OC)c2)nc2ccccc21 (centres undefined) | -5.2%
37 | C=CCn1c2ccccc2n2cc(-c3cccs3)nc12 | -8.8%
38 | CN(C)c1ccc(/C=C/C(=O)c2ccc3ccccc3c2)cc1 | -29.8%
39 | O=C(c1ccccc1I)N1CCN(c2ccccc2)CC1 | -1.2%
40 | O=C(O)/C=C/c1ccc(-c2ccc(Cl)c(Cl)c2)o1 | -2.2%
41 | Cc1ccccc1C(=O)NNC(=O)c1ccc(Br)cc1 | -6.4%
42 | O=C(CC(c1ccccc1)c1ccccc1)NCC1(c2ccccc2)CCOCC1 | -10.2%
43 | COc1ccc(NC(=O)c2ccc(Cl)cc2)c2ncccc12 | 6.5%
44 | CCOc1ccc(NC(=O)CSc2nc(C)cc(C)n2)cc1 | 7.4%

Row | SMILES | displacement
45 | Cc1cc(NC(=O)c2cc3ccccc3o2)ccc1NC(=O)c1ccccc1 | -2.7%
46 | O=C(N=Nc1c(O)n(CN2CCOCC2)c2ccccc12)c1ccccc1 | -4.3%
47 | COc1cc2c(cc1NC(=O)COc1ccc(C)cc1C)oc1ccccc12 | 1.8%
48 | Cc1cnc2cc(Cl)c(Cl)cc2n1 | 10%
49 | CC1(C)CC(NC(=O)/C=C/c2ccccc2)CC(C)(C)N1 | 9.4%
50 | Cc1cccc(C(=O)Nc2sc3c(c2C(=O)NCc2ccco2)CCC(C)C3)c1 (centres undefined) | -2.7%
51 | C=CCn1c(SCC(=O)c2ccc(OC)cc2)nc2sc3c(c2c1=O)CCCC3 | 10.5%
52 | CSc1ccc(CN2CCN(C(=O)c3cccc(F)c3)CC2)cc1 | -15%
53 | Cc1cccc(C(=O)Nc2ccc3c(c2)OCO3)c1 | 11.6%
54 | Cc1ccc(P(=O)(CCCO)c2ccc(C)cc2)cc1 | 3.6%
55 | CC(=O)Nc1ccccc1C(=O)Nc1ccccc1 | 5.4%
56 | CCOC(=O)COc1c(Cl)cc(/C=C2\C(=O)NC(=O)N(c3ccc(C)cc3)C2=O)cc1Cl | -4%
57 | CCc1ccccc1N1C(=O)/C(=C/c2cc(C)n(-c3cccnc3)c2C)C(=O)NC1=S | -0.4%
58 | CCCCNC(=O)C(Sc1ccccc1)c1ccccc1 (centres undefined) | -13.3%
59 | COc1ccc(CC(=O)Nc2ccc3c(c2)OCO3)cc1OC | -12.8%
60 | Cc1cc(Nc2ccc3c(c2)OCO3)n2c(nc3ccccc32)c1C#N | 135%
61 | Nc1nc2ccccc2n1/N=C/c1ccccc1 | 5.8%
62 | O=C(Nc1ccc2oc(-c3cccc(Cl)c3Cl)nc2c1)c1ccccc1[N+](=O)[O-] | -1.1%
63 | COc1ccc(Br)cc1/C=C/C(=O)Nc1ccc(C)cc1[N+](=O)[O-] | 87.4%
64 | Cn1c(O)c(C=NCC2CCN(C(=S)Nc3ccccc3)CC2)c(=O)n(C)c1=O | -7%
65 | O=C(NN1CCOCC1)c1ccc([N+](=O)[O-])cc1[N+](=O)[O-] | 8.7%
66 | CCc1ncc(C(O)(c2ccccc2)c2ccc(C)cc2)n1C (centres undefined) | -7.2%

Row | SMILES | displacement
67 | Cc1cccc(C(=O)Nc2nc3ccc(Br)cc3s2)c1 | 9.2%
68 | CCOCCOC(=O)C1=C(C)NC2=C(C(=O)CCC2)C1c1cccc(Cl)c1Cl (centres undefined) | 6.8%
69 | O=C(NCCCN1CCOCC1)/C(=C/c1ccc(-c2ccc(Br)cc2)o1)NC(=O)c1ccccc1 | 7.3%
70 | COC(=O)c1c(C)oc2cc(Br)c(OCc3ccccc3F)cc12 | 10.3%
71 | C=CCN1C(=O)/C(=C\c2cc3c(cc2Br)OCO3)C(=O)NC1=S | 6.8%
72 | COc1ccc2oc(=O)c(C(=O)NCc3ccccc3)cc2c1 | 17%
73 | CCOc1ccccc1N1CCN(C(=O)c2cc(Cl)ccc2[N+](=O)[O-])CC1 | -5.4%
74 | O=C(c1ccccc1)c1cc(Cl)ccc1N=Cc1ccc(Br)s1 | -0.1%
75 | CCOC(=O)C1=C(O)/C(=C/c2cc(C)n(-c3ccccc3)c2C)N=C1C | 26.1%
76 | COc1cc2nc(CCCOc3ccc(Cl)cc3Cl)oc(=O)c2cc1OC | 5.7%
77 | Cc1cccc(OCC(=O)Nc2ccc(C)c(C)c2)c1 | -13.9%
78 | CCN(CC)C(=O)C12CC3CC(C1)CC(C(=O)N(CC)CC)(C3)C2 | -6.4%
79 | CC(=O)NS(=O)(=O)c1ccc(NC(=O)c2ccccc2OC(C)=O)cc1 | -2.6%
80 | COc1ccc(-c2csc(Nc3ccccc3OC)n2)cc1 | -9.7%
81 | COc1ccc(N2C(=O)NC(=O)/C(=C/c3cc(Cl)c(OCCOc4ccccc4)c(OC)c3)C2=O)cc1 | 11.9%
82 | COC(=O)c1cccc(NC(=O)/C=C/c2ccc(OC)cc2)c1 | 0.1%
83 | COc1cccc2c1NC(c1ccc(Cl)cc1)C1CC=CC21 (centres undefined) | 9.1%
84 | Cc1cccc(OCc2nc(-c3ccc([N+](=O)[O-])cc3)no2)c1 | -3.8%
85 | CCc1ccc(/C=C(/C#N)C(N)=O)s1 | -0.3%
86 | O=S(=O)(c1ccc(F)cc1)n1cccc1 | -0.7%
87 | CC(=O)Nc1ccc(Cl)c(-c2nc3cc(Cl)ccc3o2)c1 | -24.7%
88 | CC1=C/C(=N\N=C2\NC(=O)C(CC(=O)Nc3ccccc3F)S2)CC(C)(C)C1 (centres undefined) | -1.5%

Row | SMILES | displacement
89 | COC(=O)c1c(NC(=O)c2ccccc2OC)sc2c1C(C(=O)OC)CC2 (centres undefined) | -24.8%
90 | COCCCNC(=O)/C(=C\c1ccc(N(C)C)cc1)NC(=O)c1ccc(C)cc1 | 7.3%
91 | COc1ccc(OC)c(N(CC(=O)Nc2ccc(C)cc2)S(C)(=O)=O)c1 | 6.5%
92 | CCOC(=O)c1c(NC(=O)c2ccc(Cl)s2)sc2c1CCC(C)C2 (centres undefined) | 1.8%
93 | C(=N\N1CCN(c2ccccn2)CC1)/c1cccs1 | -0.3%
94 | Cc1ccc2[nH]c3nc(N/N=C/c4ccc([N+](=O)[O-])cc4)nnc3c2c1 | 6%
95 | Cc1cccc(C)c1NC(=O)/C=C/c1ccc2c(c1)OCO2 | 14.1%
96 | O=C(NCc1ccco1)C(=O)Nc1ccccc1F | -17.9%
97 | O=C(O)CCCN1C(=O)c2cccc3cccc(c23)C1=O | 1.4%
98 | CC(C)C(NC(=O)OC(C)(C)C)C(=O)O (centres undefined) | -2.3%
99 | Cc1ccc(N[C@@H]2O[C@H](CO)[C@@H](O)[C@H](O)[C@@H]2O)cc1 | 11%
100 | COc1ccc(C(=O)Nc2ccc3c(c2)Cc2ccccc2-3)cc1Br | -4.6%
101 | COc1ccc(-c2cc(C(=O)NC(C)C)c3ccccc3n2)cc1OC | -7.2%
102 | CN1CCN(C(=O)c2cc3nc(-c4ccc(F)cc4)cc(C(F)(F)F)n3n2)CC1 | 0.3%
103 | COc1cc(/C=C2\SC(=S)N(NC(=O)c3ccc(O)c(OC)c3)C2=O)ccc1O | -7.3%
104 | CCN(CC)c1ccc(NC(=O)c2oc3ccccc3c2C)cc1 | 13.9%
105 | COc1ccccc1CNC(=O)/C=C/c1ccc(Cl)cc1Cl | -2.4%
106 | C/C(=N\NC(=O)c1ccncc1)c1ccco1 | -4.8%
107 | CCOc1ccc2cc(/C=N/Nc3nc(-c4ccccc4)c4cc(Cl)ccc4n3)c(=O)[nH]c2c1 | 4%
108 | O=C1CSC(c2ccccc2F)N1Cc1ccccc1 (centres undefined) | 1.9%
109 | Oc1ccccc1/C=N/N=C/c1ccccc1O | -5.2%
